# Test results from the RNAGym collection of RNA variant scans (doi:10.7554/elife.90254).
# The source gives no read counts; variants with many changes may rest on few reads.
# B1: LINE1-full (parent)
# chain: UACGUAGGUGGUUUUCCCCUGAUAGUGCUAAGGGGGCCUGGAAGUUUGGACUGGGCAGAGCUCAACACAGCGUGGCAAAGUGGCUGUGGCUAGACUGCCUCUCUGGAUUCCUCGUCACUCAGCAGGGCAUCUCUGAGAGAAAUGCC
# Variants of: B1
# Test: self-cleavage, relative activity (ratio to wild type); higher = more cleavage; in vitro, sequencing; the parent is a self-cleaving ribozyme
row,Variant,self-cleavage
1,UACGUAGGUGGUUUUCCCCUGAUAGUGCUAAGGGGGCCUGGAAGUUUGGACUGGGCAGAGCUCAACACAGCGUGGCAAAGUGGCUGUGGCUAGACUGCCUCUCUGGAUUCCUCGUCACUCGGCAGGGCUUCUCUGAGAGAAGUGGC [A121G A129U A142G C145G],1.5
2,UACGUAGGUGGUUUUCCCCUGAUAGUGCUAAGGGGGCCUGGAAGUUUGGACUGGGCGGAGCUCAACACAGCGUGGCGAAGUGGCUGUGGCUAGACUGCCUCUCUGGAUUCCUCGUCACUCAGCAGGGCAUCUCUGAGGGAAAUGCC [A57G A77G A138G],0.71
3,UACGUAGGUGGUUUUCCCCUGAUAGUGCUAAGGGGGCCUGGAAGUUUGGACUGGGCAGAGCUCAACACAGCGUGGCGAAGUGGCUGUGGCUAGACUGCCUCCCUGGAUUCCUCGUCACUCAGCAGGGCAUCUCUGAGGGAGAUGCC [A77G U102C A138G A141G],1.47
4,UACGUAGGUGGUUUUCCCCUGAUAGUGCUAAGGGGGCCUGGAAGUUUGGACUGGGCAGAGCUCCACACAGCGAGGCAAAGUGGCUGUGGCUAGACUGCCUCUCUGGAUUCCUCGUCACUCAGCAGGGCAUCUCUGAGAGAGAUGCC [A64C U73A A141G],0.33
5,UACGUAGGUGGUUUUCCCCUGAUAGUGCUAAGGGGGCCUGGAGGUUUGGACUGGGCAGAGCUCGACACAGCGUGGCAAAGUGGCUGUGGCUAGACUGCCUCUCUGGAUUCCUCGUCACUCAGCAGGGCAUCUCAGAGAGAAAUGCC [A43G A64G U134A],0.49
6,UACGUAGGUGGUUUUCCCCUGAUAGUGCUAAGGGGGCCUGGAAGUUUGGACUGGGCAGAGCUCAACACAGCGUGACAAAGUGGCUGUGGCUAGACUGCCUCUCUGGAUUCCUCGUCACUCAGCAGAGCAUCUCUGGGAGAAGUGCC [G75A G126A A136G A142G],1.33
7,UACGUAGGUGGUUUUCCCCUGAUAGUGCUAAGGGGGCCUGGAAGCUUGGACUGGGCAGAGCUCUACACAGCGUGGCAAAGUGGCCGCGGCAGGACUGCCUCUCUGGAUUCCUCGUCACUCAGCAGGGCAUCUCUGAGAGAAAUGCC [U45C A64U U85C U87C U91A A92G],0
8,UACGUAGGUGGUUCUCCCCUGACAGUGCUAAGGGGGGCUGGAAGUUUGGACUGGGCAGAGCUCAACACAGCGUGGCUAAGUGGCUGUGGCUAGACUGCCUCUCUGGAUUCCUCGUCACUCAGCAGGGCAUCUCUGAGAGAAAUGCC [U14C U23C C37G A77U],0.51
9,UACGUAGGUGGUUUUCCCCUGAUAGAGCUAAGGGGGCCAGGAGGUUUGGACAGGGCAGAGCUCAACACAGCGUGGCAAGGUGGCUGUGGCUAGACUGCCUCUCUGGAUUCCUCGUCACUCAGCAGGGCAUCCCUGAGAGAAAUGCC [U26A U39A A43G U52A A79G U132C],0.98
10,UACGUAGGUGGUUUUCCCCUGAUAGUGCUAAGGGGGCCUGGAAGUUUGGACUGGGCAGAGCUCAACACAGCGUGGCGAAGUGGCUGUGGCCAGACUGCCUCUCUGGAUUCCUCGUCACUCAGCAGGGCGUCUCUGAGAGAAAUGCC [A77G U91C A129G],1.41
11,UACGUAGGCGGAUUUCCCCUGAUAGUGCUAAGGGGGCCCGGAAGUUUGGACUGGGCAGAGCUCAACACAGCGUGGCAAGGUGGCUGUGGCUAGACUGCCUCUCUGGAUUCCUCGUCUCUCAGCAGGGCAUCUCUGAGGGAAAUGCC [U9C U12A U39C A79G A117U A138G],1.15
12,UACGUAGGUGGUUUUCCCCUGAUAGUGCUAAGGGGGCCUGGAAGUUUGGACUGGGCAGAGCCCAACACAGCGUGGCAAAGUGGCAGUGGCUAGACUGCCCCUCUGGAUUCCUCGACACUCAGCAGGGCAUCUCUGAGAGAAAUGCC [U62C U85A U100C U115A],0.07
13,UACGUAGGUGGUUUGCCCCUGAUAGUGCUAAGGGGGCCUGGAAGUUUGGACUGGGCAGAGCUCAACACAGCGUGGCAAAGCGGCUGUGGCUAGACUGCCUCUCUGGAUUCCUCAUCACUCAGCAGGGCAUCUCUGAGAGAAGUGCC [U15G U81C G114A A142G],1.31
14,UACGUAGGUGGUUUACCCCUGAUAGUGCUAAGGGGGCCUGGAAGUUUGGACUGGGCAGAGCUCAACACAGCGUGGCAAAGUGGCUGUGGCUAGACCGCCUCUCUGGAUCCCUCGUCACUCAGCAGGGCAUCCCUGAGAGAAAUGCC [U15A U96C U109C U132C],0.44
15,UACGCAGGUGGUUUCCCCCUGAUAGUGCUAAGGGGGCCCGGAAGUUUGGACUGGGCAGAGCUCAACACAGCGUGGCAAAGUGGCUGUGGCUAGACUGCCUCUCUGGAUUCCUCGUCACUCAGCAGGGCAUCUCUGAGAGAAAUGCC [U5C U15C U39C],1.02
16,UACGUAGGUGGCUUUCCCCUGAUAGUGCUAAGGGGGCCUGGAAGUUUGGACUGGGCAGAGCUCAACACAGCGUGGCAAAGUGACUGUGGCUAGACUGCCUCUCUGGAUUCCUCGUCACCCAGCAGGGCAUCUCGGAGAGAAAUGCC [U12C G83A U119C U134G],1.51
17,UACGUAGGUGGUUUUCCCCUGAUAGUGCGGAGGGGGCCUGGAAGUUUGGACUGGGCAGAGCUCAACACAGCGUGGCGAAGUGGCUGUGGCUAGACGGCCUCUCUGGAUUCCUCGUCACUCAGCAGGGCAUCUCUGAGGGAAAUGCC [U29G A30G A77G U96G A138G],0
18,UACGUAGGUGGUUUUCCCCUGAUAGUGCUAAGGGGGCCUGGAAGUUUGGACUGGGCAGAGCUCUACACAGCGUGGCAAAGUGGCUGUGGCUAGACUGCCUCUCUGGGUUCCUCGUCACUCAGCAGGGCGUCCCUGAGAGAAAUGCC [A64U A107G A129G U132C],0.85
19,UACGUAGGUGGUUUUCUCCUGAUAGUGCUAAGGGGGCCUGGAAGUUUGGACUGGGCAGAGCUCAACACAGCGUGGCAAAGAGGCUGUGGCUAGACUGCCUCUCUGGAUUCCUCGUCACUCAGCAGGGCAUCUCUGAGAGAGAUGCC [C17U U81A A141G],1.47
20,UACGUAGGUGGUUUUCCCCUGAUAGUGCUAAGGGGGCCUGGAAGUUUGGACUGGGCAGAGCUCAACACAGCGUGGCAAAGUGGCUGUGGCUAGACUGACUCUCUGGAUUCCUCGUCACUCAGCAGAGCAUCUCUGAGGGAAAUGCC [C98A G126A A138G],0.26

row,Variant,self-cleavage
1,UACGUAGGUGGUUUUCCCCAGAUAGUGCUAAGGGGGCCUGGAAGUUUGGACUGGGCAGAGCUCAACACAGCGUGGCAAAGUGGCUGUGGCUAGACUGCCUCCCUGGAUUCCUCGUCACUCAGCAGGGCAUCUCUGAGAGAAACGCC [U20A U102C U143C],1.65
2,UACGUAGGUGGUUUUCCCCUGAUAGUGCUAAGGGGGCCUGGAAGUUUGGACUGGGCAGGGCUCAACUCAGCGUGGCAAAGUGGCUGUGGCUAGACUGCCUCUCUGGAUUCCUCGCCACUCAGCAGGGCAUCUCUGAGAGAAAUGCC [A59G A67U U115C],0
3,UACGUAGGUGGUCUUCCCCUGAUAGUGCUAAGGGGGCCUGGGAGUUUGGACCGGGCAAAGCUCAACACAGCGUGGCAAAGUGGCUGUGGCUAGACUGCCUCUCUGGAUUCCUCGUCACUCAGCAGGGCAUCUCUGAGAGAAAUGCC [U13C A42G U52C G58A],0.09
4,UACGUAGGUGGUUUUCCCCUGAUAGUGCUAAGGGGGCCUGGAAGUUUGGACAGGGCAGAGCUCAACACAGCGUGGCAAAGUGGCUGUGGCUAGGCUGCCUCUCUGGAUUCCUCGUCACUCAGCAGGGCACCUCUGAGAGAAAUGCC [U52A A94G U130C],0.34
5,UACGUAGGUGGUUCUCCCCUGAUAGUGCUAAGGGGGCCUGGAAGUUUGGACUGGGCAGAGCUCAACACAGCGUGGCAAAGUGGCUGUGGCUAGACUGCCUCUCUGGGUUCCUCGUCACUCAGCAGGGCAUCUCUGUGAGAAAUGCC [U14C A107G A136U],1.67
6,UACGUAGGUGGUUUUCCCCUGAUAGUGCUAAGGGGGCCUGGGAGUUUGGACUGGGCAGAGCUCAACACUGCGUGGCAAAGUGGCUGUGGCUAGACUGCCUCUCUGGAUUCCUCGUCACUCAGCAGGGCAUCUCUGAGAGAGAUGCC [A42G A69U A141G],0
7,UACGUAGGUGGUUUUCCCCUGAUAAUGCUAAGGGGGCCUGGGAGUUUGGACUGGGCAGAGCUCAACACAGCGUGGCAAAGUGGCUGCGGCUAGACUGCCUCUCUGGAUUCCUCGUCACUCAGCAGGGCUUCUCAGAGAGAAAUGCC [G25A A42G U87C A129U U134A],0.17
8,UACGUAGGAGGUUUUCCCCUGAUAGUGCUAAGGGGGCCUGGAAGUUUGGACUGGGCAGAGCUCAACACAGCGUGGCAAAGUGGCUGUGGCUAGACUGCCUCUCUGGAUUCCUCGUCUCUCAGCAGGGCAUCUCUGAGAGAAACGCC [U9A A117U U143C],0.54
9,UACGUAGGUGGUUUUCCCCUGAUAGUGCUAAGGGGGCCUGGAAGUUUGGGCUGGGCAGAGCACAACACAGCGUGGCAAAGUGGCUGUGGCUAGACUGCUUCUCUGGAUUCCCCGUCACUCAGCAGGGCAUCUCUGAGAGAAAUGCC [A50G U62A C99U U112C],0.05
10,UACGUAGGUGGUUUUCCCCUGAUAGUGCUAAGGGGGCCCGGAAGUUUGGACUGGGCAGGGCUCAACUCAGCGUGGCAAAGUGGCUGUGGCUAGACUGCCUCCCUGGAUUCCUCGUCACUCUGCAGAGCAUCUCUGAGAGAAAUGCC [U39C A59G A67U U102C A121U G126A],0.14
11,UACGUAGGUGGUUUUCCCCUGAUAGUGCUAGGGGGGCCUGGAAGUUAGGACUGGGCAGAGCUCAACACAGCGUGGCAAAGUGGCUGUGGCUAGACUGCCUCUCUGGAUUCCUCGUCGCUCAGCAGGGCAUAUCUGAGAGAAAUGCC [A31G U47A A117G C131A],1.56
12,UACGUAGGUGGUUUUCCCCAGAUAGUGCUAAGGGGGCCAGGAAGUUUGGACUGGGCAGAGCUCAACACAGCGUGGCAAAGUGGCAGUGGCUAGACUGCCUCUCUGGAUUCCUCGUCACUCAGCAGGGCAUCUCUGAGAGAAAUGCC [U20A U39A U85A],0.1
13,UGCGUAGGUGGUUUUCCCCUGAUAGUGCUAAGGGGGCCUGGAAGUUUGGACUGGGCAGAGCUCAACACAGCGUGGCAAAGUGGCUGUGGCUAGACUGCCUCUCCGGAUUCCUCGUCACUCAGCAGGGCAUCUCGGAGAGAAAUGCC [A2G U104C U134G],0.57
14,UACGUAGGUGGUUUUCACCUGAUAGCGCUAAGGGGGCAUGGAAGUUUGGACUGGGCAGAGCUCAACACAGCGUGGCAAAGUGGCUGUGGCUAGGCUGCCUCUCUGGAUUCCUCGUCACUCAGCAGGGCAUCUCUGAGAGAAAUGCC [C17A U26C C38A A94G],0.15
15,UACGUAGGUGGUUUUCACCUGAUAGUGCUAAGGGGGCCUGGAAGUUUGGACUGGGCAGAGCUCAACUCAGCGUGGCAAAGCGGCUGUGGCUAGACUGCCUCUCUGGAUUCCUCGUCACUCAGCAGGGCAUCUCUGAGAGAAAUGCC [C17A A67U U81C],0
16,UACGUAGGUGGUUUACCCCUGAUAGUGCUAAGGGGGCCUGGAAGUUUGGACUGGGCAGAGCUCAACACAGCGUGGCAAAGUGGCUGUGGCUAGACUGCCUCUCUGGAUUCCUCGUCACUCAGCAGGGCAUCCCUGAGAGAAAUGCA [U15A U132C C146A],1.18
17,UACGUAGGUGGUUUUCCCCUGAUAGUGCUAAGGGUGCCUGGAAGUUUGGACUGGGCAGAGCUCUACACAGCGCGGCAAAGUGGCUGUGGCUAGACUGCCUCUCUGGAUUCCUCGUCACUCAGCAGGGCAUCUCUGAGAGAGAUGCC [G35U A64U U73C A141G],0.48
18,UACGUAGGUGGUUUUCCCCAGAUAGUGCUAAGGGGGCCUGGAAGUUUGGACUGGGCAGAGCUCAACACAGCGUGGCAAAGUGGCUGUGGCUAGACUGCCUCUCCGGAUUCCUCGUCUCUCAGCAGGGCAUCCCAGAGAGGAAUGCC [U20A U104C A117U U132C U134A A140G],0
19,UACGUAGGUGGUUCUCCCCUGAUAGUGCCAAGGGGGCCUGGAAGUUUGGACUGGGCAGAGCUCAACACAGCGUGGCGAAGUGGCUGUGGCUAGACUGCCUCUCUGGAUUCCUCGUCACUCAGCAGGGCAUCUCUGAGAGAAAUGCC [U14C U29C A77G],0.36
